# Measured values from PubChem BioAssay AID1259400 (National Center for Advancing Translational Sciences (NCATS), 2018).
# Among all 350,000 compounds or so, about 2,100 (0.6%) were called active. This list was built around the results that the source calls inconclusive (neither active nor inactive); the mix of calls is not that of the screen.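 The calls were made as follows: active = activity change of -60% or lower, but not beyond a set lower limit; inconclusive = change between -60% and -40%, or beyond the set limit; inactive = change above -40%.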
# Biological target: Relaxin receptor 1 (Homo sapiens) (UniProt Q9HBX9)
# Experiment: qHTS Assay for Antagonists of the Relaxin Receptor RXFP1
# Conditions: HEK293-RXFP1, relaxin-stimulated cAMP HTRF, 30 min; at 57.5 µM; hits give low values
# Text: The relaxin hormone is involved in the variety of biological functions in normal tissues and diseases. The role of relaxin is well-established in female reproduction and parturition, mammary gland and endometrial development, maintenance of myometrial quiescence during pregnancy. Relaxin signaling through its G protein-coupled receptor (GPCR) RXFP1 results in ECM remodeling through regulation of collagen deposition, cell invasiveness, proliferation and overall tissue homeostasis. […] Recombinant human relaxin (rhRlx) is currently being tested in clinical trials as a protective agent in congestive heart failure, in treating severe preeclampsia, and as an anti-fibrotic agent in various organs. […] Upon relaxin binding RXFP1 activation leads to the activation of adenylate cyclase (AC) via G?s. cAMP will activate PKA, which phosphorylates many signaling proteins. Thus, detection of cAMP increase is an easy and reliable indication of relaxin receptor activation. To screen for antagonists of the relaxin receptor, a HEK293T cell line stably transfected with RXFP1 was used. RXFP1 activation by relaxin in presence of various concentrations of tested compounds was assayed by changes in cAMP levels as detected with a time-resolved fluorescence energy transfer (TR-FRET) cAMP detection kit.
# For the primary screening, we used HTRF(R) (Homogenous Time-Resolved Fluorescence) cAMP HiRange assay (Cisbio Bioassays, 62AM6PEJ). Presence of cAMP in the cell lysate disrupts binding between the Cryptate-labeled anti-cAMP and d2-labeled cAMP pair, leading to a decrease in TR-FRET signal. The libraries were screened at two doses (57microM and 11microM), followed by a confirmation of the hits at 7-point serial dilution in the range of final concentrations [57microM - 78nM]. Data were normalized to the controls for basal activity (buffer only) and 100% activity (5 nM porcine relaxin). The EC50 values were determined from concentration-response data modeled with the standard Hill equation. NCGC Assay Protocol Summary: HiHEK (Hawaiian HEK293 LGR7 stably transfected with human RXFP1) were grown in the following media: DMEM+10%FBS+Pen/Strep + Geneticin (1mg/ml). For the assay, the cells were seeded in DMEM+Pen/Strep (with no serum & selective antibiotics) at 2,100 cells/ 3microl/well with MultiDrop Combi dispenser (Thermo Scientific, Logan, UT) onto white tissue culture treated solid bottom1536-well plates (Greiner #789173-F) and allowed to attach/recover overnight at 37 degrees C, 5% CO2. Next, 23nl/well of compound solutions in DMSO were transferred into wells with a pintool (Kalypsis, San Diego, CA). […] EC80 (relaxin at 50pM final concentration) was dispensed to the rest of the plate except columns 1&2 which were used as a negative control (EC0, buffer only), 1microl/well also. The cells were stimulated by relaxin in the presence of compounds for 30 minutes at 37 degrees C, 5% CO2. The detection reagents were prepared individually by dilution in Lysis buffer (supplied with the assay kit) just prior to dispensing. 1microl/well of cAMP-d2 and 1microl/well anti-cAMP-Eu3+-Cryptate antibodies were added simultaneously with BioRAPTR FRDtrade mark Workstation (Beckman Coulter). The plates were incubated at ambient temperature for 30 minutes and, then, FRET signal was read on Envision plate reader (PerkinElmer, Waltham, MA), at wavelengths 340nm (excitation), 615nm & 665nm (emission of donor and acceptor channels respectively).
# % is scaled to controls: 0 for no effect and ±100 for the full control effect.
# UniProt Q9HBX9, sequence (Q9HBX9 whole entry, looked up): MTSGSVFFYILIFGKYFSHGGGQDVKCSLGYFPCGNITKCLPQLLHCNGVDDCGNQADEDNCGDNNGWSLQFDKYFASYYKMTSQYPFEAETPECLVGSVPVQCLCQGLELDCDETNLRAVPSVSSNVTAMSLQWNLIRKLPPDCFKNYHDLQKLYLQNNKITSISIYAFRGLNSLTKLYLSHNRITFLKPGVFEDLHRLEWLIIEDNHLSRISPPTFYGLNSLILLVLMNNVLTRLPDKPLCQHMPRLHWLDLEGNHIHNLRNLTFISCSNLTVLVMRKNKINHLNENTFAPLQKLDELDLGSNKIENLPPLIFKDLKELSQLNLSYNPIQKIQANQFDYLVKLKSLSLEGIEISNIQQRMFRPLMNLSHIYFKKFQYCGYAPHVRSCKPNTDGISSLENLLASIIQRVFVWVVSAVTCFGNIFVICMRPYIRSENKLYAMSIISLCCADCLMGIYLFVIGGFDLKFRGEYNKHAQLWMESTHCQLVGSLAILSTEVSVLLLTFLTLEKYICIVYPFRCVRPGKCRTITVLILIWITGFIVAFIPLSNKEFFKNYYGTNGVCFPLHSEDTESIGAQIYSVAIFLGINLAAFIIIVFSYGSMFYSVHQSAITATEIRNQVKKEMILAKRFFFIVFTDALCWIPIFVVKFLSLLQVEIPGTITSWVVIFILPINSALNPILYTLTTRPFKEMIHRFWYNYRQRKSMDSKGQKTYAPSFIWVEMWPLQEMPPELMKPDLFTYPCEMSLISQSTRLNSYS
row,SMILES,"activity change, negative = inhibition"
1,O=C(NCCc1ccccc1)c1ccc(Cl)c([N+](=O)[O-])c1,inactive: -0.887%
2,Cc1cc(NS(=O)(=O)c2ccc(Nc3nc(-c4ccc(C)c(C)c4)cs3)cc2)no1,inactive: 12.1%
3,O=C(CSCc1c(F)cccc1Cl)NNC(=S)NC1CCCCC1,inconclusive: -51.4%
4,Cc1ccc(NC(=O)C(CC(C)C)N2Cc3ccccc3C2=O)cc1F (configuration not stated),inconclusive: -46.2%
5,CCOC(=O)c1ccc(NC(=O)CCc2ccc(CC)o2)cc1,inconclusive: -40.9%
6,CCOc1ccc(NC(=O)Cn2nnc(C(=O)NCc3ccc(OC)cc3)c2N)cc1,inactive: 13%
7,CC1OC23CCCCC2C(C#N)(C(=N)O3)C1(C#N)C#N (configuration not stated),inactive: 12.3%
8,CC1CCN(Cc2cc(=O)oc3ccc4ccccc4c23)CC1,inconclusive: -55.2%
9,CCCCCCCCCCCCCCCC[N+](C)(C)CC,active: -86.8%
10,O=C(c1ccc(-c2cccc(C(F)(F)F)c2)o1)N1CCCCCCC1,inconclusive: -47.2%
11,CC(C)CC(O)(c1ccccc1)C(CN1CCOCC1)c1ccccc1 (configuration not stated),inconclusive: -56.7%
12,O=C(Nc1ccnn1C1CCN(Cc2c(F)cccc2Cl)CC1)C1CCCC1,inconclusive: -49.9%
13,O=c1c(Cl)c(Cl)cnn1Cc1nnc(-c2ccccc2Br)o1,inconclusive: -52.9%
14,COc1ccc(CCNS(=O)(=O)c2cc3c4c(c2)CC(=O)N4CCC3)cc1,inconclusive: -54.1%
15,C=C1C(=O)C23CCC4C(C)(C(=O)OC)CCCC4(C)C2CCC1(O)C3 (configuration not stated),active: -91.6%
16,Cc1cccnc1Nc1nc(-c2ccccn2)cs1,inactive: 13.2%
17,CN(C)c1ccc(NC(=S)c2ccc3ccccc3n2)cc1,inactive: 5.33%
18,CC1CCCCN1Cc1c(O)ccc2c(=O)c(-c3ccc(Cl)cc3)coc12 (configuration not stated),inconclusive: -40.8%
19,O=C(NC(=S)NCCN1CCOCC1)c1ccccc1Br,inactive: 10.4%

row,SMILES,"activity change, negative = inhibition"
1,Cc1ccc2c(c1)c1c(n2CC(O)CN2CCCCC2C)CCCC1 (configuration not stated),active: -91.9%
2,CCCCN(C)CC(O)Cn1cc(/C=C/C(=O)c2cccs2)c2ccccc21 (configuration not stated),inconclusive: -48%
3,CCc1ncc(CN2CCCC(C(=O)Nc3ccc(-c4cscn4)cc3)C2)cn1 (configuration not stated),inconclusive: -58.5%
4,O=c1c2ccccc2sn1-c1cc(S(=O)(=O)N2CCOCC2)ccc1N1CCCC1,active: -61.8%
5,COc1ccc(-n2nnnc2-c2cnc3cc4c(cc3c2C)OCO4)cc1,inconclusive: -42.3%
6,Cc1oc(-c2ccccc2Cl)nc1CS(=O)CC(=O)N1CCN(c2cccc(C(F)(F)F)c2)CC1 (configuration not stated),inconclusive: -52.8%
7,C=CS(=O)c1sc(Cl)c(N2CCOCC2)c1[N+](=O)[O-] (configuration not stated),active: -60.3%
8,CCCOc1cccc(C(=O)Nc2cc(-c3nc4ccccc4[nH]3)ccc2C)c1,inconclusive: -47.4%
9,COc1cc(OC)c(NC(=O)Cc2c(C(=O)O)c(C)cn2C)cc1Cl,inactive: -2.84%
10,CCOC(=O)c1cnn(-c2cc(C)c3ccccc3n2)c1N,inconclusive: -47.5%
11,Cn1cc(Br)c(C(=O)n2cc(Br)cn2)n1,inconclusive: -44.2%
12,Cc1ccc(S(=O)(=O)/N=C2/NC(=O)/C(=C\c3ccccc3)S2)cc1,inconclusive: -53.4%
13,Cc1[nH]c2ccc(-c3n[nH]c(=S)n3C)cc2c1C,inconclusive: -55.2%
14,CC(C)(C)c1ccc(-c2n[nH]c(=S)n2Cc2ccccc2)cc1,inconclusive: -40.1%
15,CC(C)c1ccc(/C=N/n2c(COc3ccccc3)n[nH]c2=S)cc1,active: -60.7%
16,CN(C)CC/C=C1\c2ccccc2Sc2cc(F)c(Cl)cc21,inconclusive: -51.7%
17,Cc1cccc2nc(-c3cccnc3)c(Nc3ccc(C(C)C)cc3)n12,active: -87.5%
18,COc1ccccc1NC(=O)C(C)Nc1ccc(C)c(Cl)c1 (configuration not stated),inconclusive: -44%
19,CCc1ccc(NC(=O)C2CCN(S(=O)(=O)c3c(C)noc3/C=C/N(C)C)CC2)cc1,active: -61.8%

row,SMILES,"activity change, negative = inhibition"
1,O=C(Cn1cc(SCc2ccc(C(F)(F)F)cc2)c2ccccc21)N1CCCCC1,inconclusive: -47.9%
2,C/C(=N\NC(=O)c1cc2ccccc2cc1O)c1cc2ccccc2o1,inconclusive: -50%
3,CSc1ccc(CN2CCC(CO)(Cc3ccc(Cl)cc3)CC2)cc1,active: -81.4%
4,CN(Cc1ccn[nH]1)C(=O)C1CCC(=O)N(Cc2cccc(C(F)(F)F)c2)C1 (configuration not stated),inactive: -1.15%
5,C/C(CC(=O)NCc1ccco1)=N\NC(=O)c1ccc(Cl)cc1Cl,inconclusive: -46.6%
6,O=C(O)c1cccc(Cn2c(Cl)c(/C=N/Nc3ccccc3)sc2=O)c1,active: -73.6%
7,Fc1ccc(-c2cc3nc(-c4ccccc4)cc(N4CCOCC4)n3n2)cc1,inactive: 3.23%
8,Cc1c(C(=O)OCC(O)=C(C#N)c2nc3ccccc3[nH]2)oc2ccc(Br)cc12,inconclusive: -40.1%
9,COc1ccccc1C(=O)NCCC(=O)Nc1nc2ccccc2[nH]1,active: -86.2%
10,CCN(CC)c1ccc(CNc2nc3ccccc3n2CCN2CCCCC2)cc1,inconclusive: -49.8%
11,CCOC(=O)C1C(=O)CC(C)(O)C(C(=O)OCC)C1c1ccccc1 (configuration not stated),inactive: -13%
12,O=[N+]([O-])c1ccc(S(=O)(=O)N2CCN(c3ccnc4cc(Cl)ccc34)CC2)cc1,inactive: 10.1%
13,Cc1ccccc1/C=C1\SC(=S)N(/N=C/c2cc([N+](=O)[O-])ccc2O)C1=O,inconclusive: -57.1%
14,Cc1ccc(N2CC(NS(=O)(=O)c3cc(F)ccc3F)CC2=O)cc1C (configuration not stated),inactive: -6.69%
15,C=CCc1cccc2cc(C(=O)NCc3cccnc3)c(=O)oc12,inactive: -7.55%
16,Cc1ccnc(NC(c2ccccc2)c2ccc3cccnc3c2O)c1 (configuration not stated),inconclusive: -40%
17,CC(C)Cc1nc2ccccc2n1CCc1ccccc1,inconclusive: -46.7%
18,CCOC(=O)n1c(=O)n(Cc2c(Cl)cccc2Cl)c2ccccc21,inconclusive: -53.5%
19,O=C1CC(C(=O)Nc2ccc(Cl)cc2)S/C(=N\N=C\c2ccco2)N1 (configuration not stated),inconclusive: -43.2%
